Values marked as one replicate rest on one cluster of the flow cell; about a third of the high ones do not repeat.
Tested on: ATP
Assay: switch fluorescence ratio, 500 uM ATP over buffer (Cy3 cluster intensity, sum of 5 cycles each) (fold (ratio)); higher = stronger signal-on switching upon ATP binding; sequences stand for … in TCGTCGGCAGCGTCAGATGTGTATAAGAGACAGTTTTTTTTTTTTTTTTTTTTTTTTT…TC
Conditions: aptamer strand: ATP DNA aptamer (quencher-CACCTGGGGGAGTATTGCGGAGGAAGG + anchor), 100 nM annealed; ATP concentration: 500 uM; one replicate
How it was run: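 Clusters carrying Cy3-labelled switching strands on a modified Illumina MiSeq flow-cell were annealed to 100 nM quencher-labelled ATP aptamer and imaged in selection buffer. They were imaged again after 15 min with 500 uM ATP at 22 °C, over five buffer/ATP cycles with NaOH stripping and re-annealing in between. For each cluster, the fluorescence ratio is the summed Cy3 intensity of the target cycles divided by that of the buffer cycles, averaged per switch-domain sequence. Clusters outside 100-1000 RFU were left out.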
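Note: ATP exposure 15 min at 22 °C before imaging.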

| Sequence | switch fluorescence ratio |
| --- | --- |
| CCTTCCGTGG | 1.5 |
| CTAAGGCTAT | 1 |
| GGTTATTTTA | 0.988 |
| AATAAGAGAT | 0.973 |
| CTGCATGGAC | 3.19 |
| TGTCGACAAT | 1.03 |
| GTGGAAGTTA | 1 |
| AGTAAAGGG | 1.02 |
| AATTGTCCCT | 0.999 |
| TGCGCATAAC | 3.47 |
| TGTAAGTCCT | 0.989 |
| CGCACCAAGC | 1.17 |
| AGGTGATCAC | 1.05 |
| TCTTCGAGAT | 1.1 |
| AGAATGACGC | 1.1 |
| TTACACCTGT | 1.04 |
| TCAGGCAGAT | 0.956 |
| TTTACATGAG | 1.02 |
| GCAGGTTGGG | 1.04 |
| AGGCGGCTGG | 1.03 |
| TAGGATTCAT | 0.975 |
| AACGCTTATA | 1.13 |
| CAGATCTTGT | 0.947 |
| ACCGGCACTT | 1.16 |
| ACATTCAGCT | 1.02 |
| TATACTTTCG | 1.01 |

| Sequence | switch fluorescence ratio |
| --- | --- |
| CCAGGGCTGC | 1.05 |
| AAGAAAATGA | 1.09 |
| ATGTATTGCC | 0.979 |
| AGGTGTTGAA | 1 |
| CCCAGTTAGC | 1.08 |
| GGCTCAAGGG | 0.985 |
| ATTCCTTTAT | 1.02 |
| CGATGCACGT | 1.08 |
| TTTGTGTTAA | 1.1 |
| GGTTTCTATT | 0.999 |
| ACCACCAGCG | 2.24 |
| GCCAATGCTG | 1.08 |
| TTGAAAAGTT | 1.05 |
| CGCAGGCCGT | 0.971 |
| TGCCATTCAA | 1.04 |
| CACTAAGGG | 1.01 |
| GATTCTGTGC | 0.961 |
| AGCGTTTGTC | 1.08 |
| CCGCAGAGGG | 1.78 |
| CCATAGACA | 1.01 |
| CATATAAGAC | 1.08 |
| ACTGCCGTGA | 1 |
| ATGGACGCTC | 1.08 |
| TGGATAAATA | 1 |
| AGGACGAGTA | 1.04 |
| CGATTAGGTT | 1.04 |

| Sequence | switch fluorescence ratio |
| --- | --- |
| AAAGATTAA | 1.04 |
| GCATTTTTTG | 0.986 |
| ATAATCA | 1.02 |
| ATAGTGAGTC | 0.976 |
| TCGGTGTGC | 0.989 |
| ACTAATGCTG | 1.03 |
| CTCTACTAGC | 1.08 |
| AGATGTAAC | 1.01 |
| AATATAGTAA | 0.94 |
| TCTTGAGAGG | 0.986 |
| CACGTCGGGC | 0.992 |
| TTGGTACCTG | 0.998 |
| AAAAATCAGC | 0.994 |
| ACACAAGTCT | 1.03 |
| CCCGCGTTGT | 1.18 |
| GATAATGTTG | 0.968 |
| TCCGAGAATT | 1.69 |
| TCTGAGGTC | 1.01 |
| TATACGGCCT | 1.04 |
| CGAAGTCAAG | 1.52 |
| GCTGACTATC | 0.984 |
| GCATTTGTCT | 0.953 |
| GTATTATGAG | 0.987 |
| AGGGCAGCTG | 0.98 |
| CCATAGTGCA | 1.05 |
| TTGATACCAT | 1.01 |

| Sequence | switch fluorescence ratio |
| --- | --- |
| GTATTAACTT | 1.02 |
| GCCCATCTGC | 1.11 |
| GTAGTATTTA | 0.994 |
| TATCTTATGA | 0.997 |
| GTACAAGGGA | 0.986 |
| CAAAGACCGT | 0.992 |
| TCACAATCGA | 1.03 |
| GTGTAACGTA | 1.01 |
| CGGCAATAAT | 5.49 |
| ACGTATTGTA | 1.05 |
| GCCGACCTGG | 1.03 |
| ACTTACGGGA | 1.31 |
| TTAGTTGAGC | 1.08 |
| ATAAAGCGTC | 1.12 |
| GGTTTACCGC | 0.992 |
| TTTGTCCGCT | 1.1 |
| GAACATCGTT | 0.992 |
| GGGCCATAGG | 1.08 |
| TATATGCTTC | 1.01 |
| CTTGGAAGAC | 2.15 |
| TTTTAGTGAT | 0.981 |
| AGCCTGTCTC | 1.01 |
| GTATTGAGCG | 1.01 |
| TTGGCTTCT | 1.03 |
| ATTTTGCGGC | 0.954 |
| TTTCTAGAAG | 1.03 |

| Sequence | switch fluorescence ratio |
| --- | --- |
| GCGCGCTCAT | 0.976 |
| AGATGCTTTT | 1.03 |
| TCGCAGCCAG | 1.1 |
| CGGTCTTGGT | 1.01 |
| TCCAGCTTAT | 1.05 |
| TAGAACGATG | 0.981 |
| CACAACAGGA | 1.01 |
| GACGGTCTTC | 1.04 |
| GATTTGAAGA | 0.964 |
| ATTTAGAGGG | 0.987 |
| CTTCTATTTG | 0.996 |
| TTGATTCTTC | 1.01 |
| GCGTGCATTT | 0.938 |
| TTTATGGTAG | 0.987 |
| CGGTCAATGT | 1.02 |
| GGTTGGGACC | 1.02 |
| ACAAGCGGTA | 1.04 |
| TCGGCACTTG | 0.979 |
| TCCAGTTGGG | 0.989 |
| CAGCTAGCGT | 1.03 |
| GTGAGAAAAG | 1 |
| TAGTATTTGT | 0.996 |
| TCTATTCCCC | 0.965 |
| TGTTTCCGCA | 2.88 |
| TACCATTTCT | 1.04 |
| ACTCATAGCA | 1.19 |

| Sequence | switch fluorescence ratio |
| --- | --- |
| CGCCTAAAAA | 0.97 |
| TTAGGCCTTA | 0.972 |
| ATTAGTCCT | 1.03 |
| GAATGTGCTG | 1.03 |
| ATGCTAAGTA | 0.988 |
| TCACTCGCCA | 1.17 |
| TAGGATGAGA | 0.975 |
| AATAACCGTG | 1.02 |
| AAATGCCAGC | 0.988 |
| GCATACTTCC | 3.02 |
| CGAAATTATA | 0.978 |
| ATCGAAAGAT | 0.981 |
| AGGTTAAAGC | 1 |
| TACGGGCCTA | 1.01 |
| ATTTAGTCGG | 0.965 |
| TAAGAGTAAG | 1.01 |
| GACCCTAGAC | 1.11 |
| CATGATCTGT | 1.02 |
| CAAATTTGTG | 1.02 |
| CAAGAATCTT | 0.996 |
| CCGACAGGAC | 2.43 |
| TGCCTTTAGT | 1.03 |
| TCAATACGAA | 1.26 |

— the supplement of paper PMC10126150
